# Measurements: the supplement of paper PMC11417369
# ± gives the standard deviation of the averaged measurements. The list shows a part of the results.
# System: PfAP2-I AP2 domain 3 (GST-tagged)
# Experiment: gcPBM binding intensity (ln(normalized median fluorescence intensity)); higher = stronger DNA binding
# Summary of the method: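 Binding intensity is the highest Masliner-normalised natural-log median intensity over replicate spots in either probe orientation. To obtain it, GST-tagged P. falciparum DNA-binding domains made in E. coli were incubated for 1 h on an Agilent 4 × 180k array of primer-extended double-stranded 36-bp intergenic genomic probes plus negative controls. Detection used Alexa488 anti-GST antibody with scanning at 488 nm.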
row,Sequence,gcPBM binding intensity (ln)
1,TTGTAAAAATTAATACATATATATATATATATATAT [CACACA_negctrl_site6],9.36 ± 0.46
2,TTAAATAAAAAAATAACACACATATAAATATATATG [CACACA_site3175],7.35 ± 0.33
3,TTACATATTTTTTAACGTACATAAATATATATGTAT [XGTACX_site8406],7.96 ± 0.14
4,TAACTAAGGAATAATACACACAGAAATATAGATTTA [CACACA_site6293],7.51 ± 0.68
5,CAACAAAAATTATTTACACACAAAAGGCAAGGAAAT [CACACA_site1971],8.16 ± 0.79
6,TTTATAAACAAATGAACACACAAACATATATATATA [CACACA_site5713],9.15 ± 0.13
7,TTTTTTCATTAGAAAACATGCAAATGTTTTTCACTT [TGCATGCA_site127],7.52 ± 0.83
8,CTATTATAATATTTTACACACCATGTAAGATATATA [CACACA_site7492],8.32 ± 0.63
9,TTTATTTTATCATTTGCACACGCACCCAGACATAAA [CACACA_site4347],9.74 ± 0.25
10,TATTCATTTATAAGCTGTACACATTAATTTGAGCTA [XGTACX_site3616],7.72 ± 0.32
11,ATTAGGATATATTAAAGTACTAATATAATACATTTT [XGTACX_site7386],7.52 ± 0.4
12,ATATAGTATTAATTTGCATGTCATGTATTAGGTCGA [TGCATGCA_site540],7.5 ± 0.69
13,CTTTTTTTAATATGCACACATATATTTTATATATTA [CACACA_site2077],9.54 ± 0.11
14,TTTTATATTTTTTGTGGTACATTTAGAGAACCAAAA [XGTACX_site1695],7.84 ± 0.42
15,TGTAAGTTGATATAATGTACATGTTTGATTTTTTTT [XGTACX_site7687],7.62 ± 0.47
16,AGATTTATACAAATATGTACACACTAAATATATATT [XGTACX_site864],7.88 ± 0.52
17,AAAAAGGGTATTATTACACACACGTAAATATTAATA [CACACA_site101],7.71 ± 0.42
18,ATATTTTCTTTTTAAAGTACATATTTGATTACAATA [XGTACX_site8414],7.66 ± 0.5
19,GAAAAAAAAGAAAAAACACACATATGATATATTTAT [CACACA_site1524],7.28 ± 0.73

row,Sequence,gcPBM binding intensity (ln)
1,AAAGAAAAAAAAAACACACACACACGCATTCAATAT [CACACA_site6169],7.92 ± 0.73
2,ATATATATTTATATATATATATATATATATATGTAT [GTGCAC_negctrl_site220],8.585 ± 0.049
3,CATGTAATATTAAACACACACTCATATAACACAATA [CACACA_site65],8.44 ± 0.57
4,TCTTAGATTATTTATTGTACTTATGCTTAAAAAATT [XGTACX_site3639],7.67 ± 0.53
5,TAGTTATTTATATACACACACATACAGACAAATAAA [CACACA_site7577],8.11 ± 0.32
6,GTCCAATAAGGAAGAGTGCAAAAATTAAATAATATA [GTGCAC_site9751],9.905 ± 0.078
7,TTGTTTCTTAAATTATTTATTTTATATTAAAAAAAA [XGTACX_negctrl_site224],7.8 ± 0.36
8,ATTCGTAGTTTTATGAATTAATATAATAAAAATTAA [XGTACX_negctrl_site181],7.42 ± 0.38
9,TCGTAGTTACTATGGCAAGAAAATAAACGGTCTTGT [GTGCAC_negctrl_site684],7.9 ± 0.85
10,AAGAAAATGAAAAAGTAAAAACATATATTAAATATA [TGCATGCA_negctrl_site123],7.41 ± 0.57
11,ATAGAATAATATTGTAGTACTAAAAATATTCATTTT [XGTACX_site6447],7.58 ± 0.35
12,TCTATATATAAATATAAATATATATATATAATGTTA [TGCATGCA_negctrl_site92],7.13 ± 0.071
13,TAAAAAACAAAACAGGTGCTATATAATTTTCATTTT,9.79 ± 0.071
14,TCTTTTTGTTCGTGTACACACATGAAATTTATAAAA [CACACA_site1619],9.09 ± 0.31
15,AAGTATATACATATATGTACACATTGTCAGATAGAA [XGTACX_site1236],7.74 ± 0.37
16,ATTATAAATTAAAATACACACATATATACATAATAT [CACACA_site7337],7.66 ± 0.46
17,ATATATATATATATATGTACATATTTTTAATTATAA [XGTACX_site7444],9.46 ± 0.64
18,CAAAGGGAAATTAACACACACATATATATATATATA [CACACA_site2453],9.48 ± 0.45
19,GTATACACATATATATGTACTTAATTATTTTATGTC [XGTACX_site6707],7.88 ± 0.38

row,Sequence,gcPBM binding intensity (ln)
1,AAACATGATTATTATAGTACAATTATAATTATTATA [XGTACX_site2590],7.42 ± 0.54
2,GTCATAAAAACATATACACACTTGAAATATAAAAAT [CACACA_site5315],7.89 ± 0.3
3,TTTATAAAAATATACACACATACAAATATGCATATA [CACACA_site712],7.71 ± 0.4
4,GAAAAAAGGAAATAAAGAAAAAAAAAAATGAAATAT [XGTACX_negctrl_site318],7.63 ± 1
5,TTTCTTTTCTCAGAAATTATTCAAATGAAAAAAAAT [TGCATGCA_negctrl_site44],7.53 ± 0.39
6,TTTATATGTATTAAGTGTACACATATAATCTATCTT [XGTACX_site4922],8.04 ± 0.2
7,TAATAATATATATGAAGTACAATAACTTTTTGTTTT [XGTACX_site292],7.61 ± 0.35
8,GTCAAATTTTTGTGCACACATATATAGTTATTATTA [CACACA_site2241],11.2 ± 0.23
9,AAAAAAAAAAAAAAAACACACACATACACCCAAAAA [CACACA_site7910],9.01 ± 0.38
10,TTACATATGGTTAGTAGTACATATATAAATGTAAAT [XGTACX_site7206],7.91 ± 0.26
11,AAAATACACGCATACACACACACACCCACCCATATA [CACACA_site639],8.21 ± 0.66
12,ATTATAATTATTTTGTTGCACTATTTTTGTAGGCCA [GTGCAC_site9734],10.3 ± 0.17
13,GAATACACCACGCACACACACTTGAGAAAAAATAAA [CACACA_site7747],8.57 ± 0.11
14,TCTATAAAGTTCCATACATGCGCCATCATTTATATT [TGCATGCA_site195],7.97 ± 0.79
15,GTGTACATAGGTATAGCACACACAAATGTAGGTATT [CACACA_site9339],8.46 ± 0.35
16,TGTATATATATATAAAGTACATATAATATATATTTG [XGTACX_site5411],7.48 ± 0.26
17,AAATAAAATTATAACTGTACGTTGTATGAAATAATG [XGTACX_site5462],7.94 ± 0.33
18,CTGTTTAAAATATAAACACACATTGTTTGCTTTAGA [CACACA_site1301],7.7 ± 0.52
